Test results as given in PubChem BioAssay AID504706 (National Center for Advancing Translational Sciences (NCATS), 2011).
Out of some 320,000 compounds screened, about 200 (0.062%) were called active. The shares of active, inactive and inconclusive entries below differ from those in the screen. Calls come from the whole dose curve; as a rule, active = well fitted activation curve with a large enough effect; inconclusive = small, poorly fitted or top-dose-only effect; inactive = no such curve, though single readings can be large or run the other way. No potency is given beside an inconclusive call; the fits are too rough.

assay: qHTS assay for re-activators of p53 using a Luc reporter; conditions: H1299 p53-A138V BP100-luciferase reporter, luminescence, 24 h; series mostly up to 92.2 µM; activity change, positive = activation: at the top concentration; note: nearly all actives have a fitted effect of over 45% in size; for activity change, positive = activation: % of control where 0% means no effect
How it was run: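 p53-null H1299 cells stably carrying temperature-sensitive p53-A138V and a BP100-luciferase reporter were pinned with compounds (4-point, 1:5 series) and held 24 hrs at 37 deg C. Luminescence was read 10 min after detection reagent.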
Potency is the fitted concentration of half-maximal effect; tags give direction and shape of the fitted curve.

| SMILES | activity change, positive = activation | Potency |
| --- | --- | --- |
| COc1ccc(CCNC(=O)Nc2ccc3c(c2)OCO3)cc1OC | inactive: -4.4% |  |
| CC(C)CSC1=NSC2=NC(=O)/C(=C\c3cccs3)C(=N)N12 |  | inconclusive [activator, partial curve, poor fit] |
| COC(=O)C1=C(C)NC(=O)/C1=C\c1ccco1 |  | inconclusive [activator, single point] |
| O=c1c2ccccc2nc(SCc2nc3ccccc3s2)n1CCCO |  | inconclusive [activator, full curve, poor fit] |
| COc1ccc(C(=O)NCCC2=CCCCC2)cc1 |  | inconclusive [activator, full curve, poor fit] |
| CC(C)C(=O)Nc1cccc(-c2csc(-c3ccccc3)n2)c1 |  | inconclusive [activator, single point] |
| Cc1nn(Cc2ccc(F)cc2)c(C)c1NC(=O)c1cc(-c2ccco2)on1 |  | inconclusive [activator, single point] |
| Clc1ccc(NNc2ccnc3cc(Cl)ccc23)cc1 | inactive: -1.25% |  |
| CN(C)c1ccc(/C=C2/NC(=O)NC2=O)cc1 |  | inconclusive [activator, partial curve, poor fit] |
| O=S(=O)(Nc1ccc(Cc2ccncc2)cc1)c1ccc(Cl)s1 | inactive: 9.61% |  |
| O=C(CSc1ncnc2c1cnn2-c1ccc(F)cc1)NC1CCCC1 |  | inconclusive [activator, single point] |
| C/C(=N\NC(=O)COc1ccc(C)cc1C(C)C)c1ccc(-n2ccnc2)cc1 | inactive: 22.9% |  |
| N/C(=N\OC(=O)c1ccc(Br)cc1)c1ccccc1 |  | inconclusive [activator, partial curve, poor fit] |
| CCN(CC(=O)Nc1ccc2c(c1)OC(F)(F)O2)Cc1nc2ccccc2c(=O)[nH]1 | inactive: -5.65% |  |
| O=C(Nc1cccnc1)Nc1ccccc1Cl |  | inconclusive [activator, partial curve, poor fit] |
| COc1cccc(/C=C/c2ccc3cccc(O)c3n2)c1OC |  | inconclusive [activator, partial curve, poor fit] |
| CCSc1nnc(NC(=O)c2cc(C)on2)s1 |  | inconclusive [activator, partial curve, poor fit] |
| O=C(Nc1ccccc1C(=O)O)c1ccc(Br)o1 |  | inconclusive [activator, partial curve, poor fit] |
| Nc1cc(-c2ccc(Br)cc2)nn1Cc1ccccc1 | inactive: 7.56% |  |
| O=S(=O)(N/N=C1\CC(c2ccccc2)Oc2ccccc21)c1ccccc1 (stereo not drawn) | inactive: -3.36% |  |
| CCOC(=O)c1sc(NC(=O)c2ccc3ncsc3c2)nc1C |  | inconclusive [activator, partial curve, poor fit] |
| c1ccc(CSc2ccc(-c3ccco3)nn2)cc1 |  | inconclusive [activator, full curve, poor fit] |
| COc1ccc(Br)cc1[C@H]1[C@H]2C=CC[C@@H](C)[C@@H]2C(=O)N1Cc1ccccc1 | inactive: 4.87% |  |
| Cc1[nH]n(C(N)=S)c(=O)c1N=Nc1ccc(Br)cc1 |  | inconclusive [activator, full curve, poor fit] |
| N/C(=N\OC(=O)c1ccc(Cl)cc1[N+](=O)[O-])c1cccnc1 |  | inconclusive [activator, full curve, poor fit] |

| SMILES | activity change, positive = activation | Potency |
| --- | --- | --- |
| CSCc1ccc(C(=O)NCCSc2ccc(Br)cc2)cc1 |  | inconclusive [activator, full curve, poor fit] |
| N=c1c(C(=O)NCc2ccc3c(c2)OCO3)cc2c(=O)n3ccccc3nc2n1Cc1cccnc1 | inactive: -6.79% |  |
| CC(C)Oc1cc(NC(=O)CSCC(=O)Nc2cccc(C(F)(F)F)c2)c(Cl)cc1Cl | inactive: -3.61% |  |
| CCc1cccc(C)c1NC(=O)N(C)C1CCCCC1 |  | inconclusive [activator, single point] |
| COc1ccc(-n2c(-c3cnccn3)n[nH]c2=S)cc1 |  | inconclusive [activator, single point] |
| CCOc1ccc(C2C(C#N)=C(N)SC(N)=C2C#N)cc1OCC | inactive: -4.46% |  |
| N#CCCN(Cc1ccccc1)C(=O)Nc1ccccc1 | inactive: 4.9% |  |
| CCc1cc(-c2onc(C)c2-c2cscn2)c(O)cc1OC | inactive: -5.54% |  |
| CN1CCN(/C=N/c2sc3c(c2C#N)CCCCC3)CC1 |  | inconclusive [activator, partial curve, poor fit] |
| COc1ccccc1NC(=O)CSc1ccc(-c2ccc(-n3ccnc3)cc2)nn1 | inactive: -1.14% |  |
| O=C(Nc1ccccc1)N1CC=C(c2ccc(F)cc2)CC1 |  | inconclusive [activator, partial curve, poor fit] |
| S=C(NC1CC1)N1CCN(C(=S)NC2CC2)CC1 |  | inconclusive [activator, partial curve, poor fit] |
| CCC(=O)c1ccc(OCCn2cnc3ccccc32)cc1 | inactive: -2.32% |  |
| O=[N+]([O-])c1ccc2c(c1)C(N1CCOCC1)/C(=C/COc1ccc3ccccc3c1Br)O2 (stereo not drawn) |  | inconclusive [activator, partial curve, poor fit] |
| Cc1c(C2Nc3ccccc3NC3=C2C(=O)CC(C)(C)C3)cnn1C (stereo not drawn) |  | inconclusive [activator, partial curve, poor fit] |
| O=C(O)CCc1ccc(-c2cccs2)n1CC1CCCO1 (stereo not drawn) | inactive: 7.21% |  |
| COc1ccc(CN=C2NN=C(c3ccccc3)CS2)cc1 |  | inconclusive [activator, full curve, poor fit] |
| CC(C)c1nnc(NC(=O)C2CCCCC2)s1 |  | inconclusive [activator, partial curve, poor fit] |
| O=C(COc1ncnc2sccc12)NC1CCS(=O)(=O)C1 (stereo not drawn) | inactive: 2.27% |  |
| CC(CCc1ccccc1)NC(=O)C(=O)N1CCOCC1 (stereo not drawn) | inactive: -0.0739% |  |
| Cc1ccc(NC(=O)CCN2C(=O)C3CCCCC3C2=O)c(O)c1 (stereo not drawn) | inactive: 8.79% |  |
| ClC(/C=N/n1cnnc1)=C/c1ccccc1 |  | inconclusive [activator, single point] |
| Cc1cccc(-c2nsc(SCC(=O)NCc3ccco3)n2)c1 |  | inconclusive [activator, full curve, poor fit] |
| COc1ccccc1C(=O)COC(=O)C1(C)CC1(Cl)Cl (stereo not drawn) | inactive: 23.3% |  |
| COc1ccccc1-c1cc(C(=O)NCCc2ccccc2)no1 |  | inconclusive [activator, partial curve, poor fit] |

| SMILES | activity change, positive = activation | Potency |
| --- | --- | --- |
| CCOC(=O)N1CCN(C(=O)c2ccc(NS(=O)(=O)c3ccc4[nH]c(=O)[nH]c4c3)cc2)CC1 |  | inconclusive [activator, single point] |
| COc1cccc(C(=O)Oc2c(CN3CCOCC3)cc(Cl)c3cccnc23)c1 | inactive: 14.4% |  |
| O=C(Nc1nc(COc2ccccc2)cs1)C12CC3CC(CC(C3)C1)C2 |  | inconclusive [activator, full curve, poor fit] |
| COC(=O)c1sccc1N/N=C/c1cccc(OC)c1O |  | inconclusive [activator, partial curve, poor fit] |
| Cc1ccc(-c2csc(NC(=O)CSc3ncn(-c4ccccc4)n3)n2)cc1 |  | inconclusive [activator, single point] |
| O=C(CCCc1ccccc1)NCc1cn2ccsc2n1 |  | inconclusive [activator, single point] |
| CC(C)(C)c1csc(NC(=O)C2=COCCO2)n1 |  | inconclusive [activator, full curve, poor fit] |
| CC(C)(C)c1ccc(C(=O)/C(C#N)=C/c2cccs2)cc1 | inactive: -2.73% |  |
| COc1ccccc1NS(=O)(=O)c1cccc(NC(=O)c2[nH]c(C)c(C(C)=O)c2C)c1 | inactive: -4.13% |  |
| O=C(Nc1ccc2c(c1)OCO2)c1cnc2n(c1=O)CCS2 |  | inconclusive [activator, partial curve, poor fit] |
| Brc1ccccc1-n1nnc(-c2cccnc2)n1 | inactive: 5.65% |  |
| Cc1nc2ccc(S(=O)(=O)Nc3ccc(-c4nc5cccnc5s4)cc3)cc2s1 |  | inconclusive [activator, partial curve, poor fit] |
| Cc1cc(C)c(NC(=O)Cn2nnc(C(=O)Nc3ccc(F)cc3F)c2N)c(C)c1 |  | inconclusive [activator, single point] |
| CCCCN1CN=C(Nc2nc3ccccc3o2)NC1 |  | inconclusive [activator, partial curve, poor fit] |
| CCOC(=O)C1=C(C)N(C[C@@H]2CC[C@@H](Cc3ccc(-c4ccccc4)cc3)O2)C(=O)NC1c1ccc([N+](=O)[O-])cc1 (stereo partly drawn) | inactive: -4.21% |  |
| O=C(NCC(=O)N1CCN(S(=O)(=O)c2ccc3c(c2)OCCO3)CC1)c1ccccc1Cl | inactive: -1.27% |  |
| CC(=O)Nc1cccc(-c2cnc3ccccc3n2)c1 |  | inconclusive [activator, partial curve] |
| CCCCCCC[C@@H](C/C=C/CCC(=O)O)OC | inactive: -5.18% |  |
| CC(=O)Nc1ccc(C(=O)c2ccccc2)cc1 |  | inconclusive [activator, partial curve, poor fit] |
| COCC(=O)N1CCc2ccc(NC(=O)c3ccccc3Cl)cc2C1 |  | inconclusive [activator, single point] |
| CCCCC(CC)COC1(c2ccccc2)OC(=O)c2ccccc21 (stereo not drawn) |  | inconclusive [activator, full curve, poor fit] |
| CC(C)=CC(=O)Nc1ccc(Cl)cc1 | inactive: 9.88% |  |
| c1ccc(Cn2nnc(-c3ccccc3)n2)cc1 |  | inconclusive [activator, partial curve, poor fit] |
